# Source: ChEMBL document CHEMBL5606458, “ASAP - ZIKV NS2B-NS3 protease fluorescence single point” (2024)
# Out of some 2,700 compounds screened, about 160 (5.9%) showed an effect of 50% or more. Some of the results follow.
# Target: Nonstructural protein 3 (Zika virus) (UniProt A0A024AXB9)
# [1] = PRVABC59, Concentration 15.0 uM, Number of replicates 1.0
# [2] = PRVABC59, Concentration 50.0 uM, Number of replicates 1.0
# UniProt A0A024AXB9, sequence (A0A024AXB9 as listed by the source): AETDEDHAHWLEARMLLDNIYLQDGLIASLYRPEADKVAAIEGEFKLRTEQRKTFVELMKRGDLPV
smiles,measurement,setting,value
CCn1ncc(-c2nn(C)cc2NC(=O)c2ccccc2C(F)(F)F)c1F,inhibition,"PRVABC59, Concentration 49.5 uM, Number of replicates 2.0, Standard deviation 0.5750886903093277 %",-2.16%
same,inhibition,"PRVABC59, Concentration 99.01 uM, Number of replicates 2.0, Standard deviation 1.5049834176965216 %",-1.48%
same,inhibition,"PRVABC59, Concentration 198.0 uM, Number of replicates 2.0, Standard deviation 0.7449247690337362 %",-1.24%
C[C@H](NC(=O)c1cc(Cl)ccc1NS(=O)(=O)c1ccc(Oc2ccccc2Cl)cc1)c1ccc(Cl)cc1Cl,inhibition,[1],38.5%
CC(C)(C)c1ccc(O)c(NC(=O)c2cc(Cl)ccc2NS(=O)(=O)c2ccc(Oc3ccccc3Cl)cc2)c1,inhibition,[1],48.6%
O=Cc1ccc(N2CCC(C(=O)NCc3ccc(F)c(Br)c3)CC2)cc1,inhibition,"PRVABC59, Concentration 10.0 uM, Number of replicates 1.0",1.29%
CC(C)N(C[C@H](O)COc1ccc(CC(N)=O)cc1)C(=O)c1cc(Cl)ccc1NS(=O)(=O)c1ccc(Oc2ccccc2Cl)cc1,inhibition,[1],13.1%
O=C(NCC1(N2CCOCC2)CCCCC1)c1cc(Cl)ccc1NS(=O)(=O)c1ccc(Oc2ccccc2Cl)cc1,inhibition,[1],20.2%
CC(C)N(CCN1CCCCCC1)C(=O)c1cc(Cl)ccc1NS(=O)(=O)c1ccc(Oc2ccccc2Cl)cc1,inhibition,[1],15.1%
CCCCCC(=O)N[C@H](C(=O)N1CCC(N)CC1)c1ccc(OCc2ccccc2)cc1,inhibition,"PRVABC59, Concentration 49.5 uM, Number of replicates 2.0, Standard deviation 0.44946257928201355 %",-0.332%
same,inhibition,"PRVABC59, Concentration 99.01 uM, Number of replicates 2.0, Standard deviation 0.4944088326662578 %",1.84%
same,inhibition,"PRVABC59, Concentration 198.0 uM, Number of replicates 2.0, Standard deviation 0.19204329535164696 %",7.09%
O=C(N[C@@H](CC(=O)N1CCn2c(nnc2C(F)(F)F)C1)Cc1cc(F)c(F)cc1F)c1cc(Cl)ccc1NS(=O)(=O)c1ccc(Oc2ccccc2Cl)cc1,inhibition,[1],18.3%
O=C(Nc1cccc(I)c1)c1cc(Cl)ccc1NS(=O)(=O)c1ccc(Oc2ccccc2Cl)cc1,inhibition,[1],48.1%
O=Cc1ccc(N2CCC(C(=O)N3CCN(C(=O)N4CCCCC4)CC3)CC2)cc1,inhibition,[2],20.3%
Cc1ccc(C(=O)N2CCC(NC(=O)C3CCN(c4ccc(C=O)cc4)CC3)CC2)cc1,inhibition,[2],25.4%
CSCC[C@H](NC(=O)OC(C)(C)C)C(=O)N1CCC[C@H]1C(=O)Nc1ccc2c(c1)B(O)OC2,inhibition,"PRVABC59, Concentration 49.5 uM, Number of replicates 2.0, Standard deviation 2.1516825960521024 %",-5.65%
same,inhibition,"PRVABC59, Concentration 99.01 uM, Number of replicates 2.0, Standard deviation 1.7183871994888231 %",-4.38%
same,inhibition,"PRVABC59, Concentration 198.0 uM, Number of replicates 2.0, Standard deviation 1.3041143615324509 %",-3.13%
C[C@H](NC(=O)c1cc(Cl)ccc1NS(=O)(=O)c1ccc(Oc2ccccc2Cl)cc1)c1ccc([N+](=O)[O-])cc1,inhibition,[1],45.5%
Cc1cc(Br)c(Cl)cc1NC(=O)C1CCN(c2ccc(C=O)cc2)CC1,inhibition,[2],26.8%
Cc1c(C2CCNCC2)cnn1Cc1nnc(-c2ccccc2)o1,inhibition,"PRVABC59, Concentration 49.5 uM, Number of replicates 2.0, Standard deviation 1.8004573341502979 %",-1.03%
same,inhibition,"PRVABC59, Concentration 99.01 uM, Number of replicates 2.0, Standard deviation 1.9693745062100474 %",-0.513%
same,inhibition,"PRVABC59, Concentration 198.0 uM, Number of replicates 2.0, Standard deviation 0.29610171483577025 %",-0.535%
Cc1c(C(=O)NCCn2cnnn2)ccc(O)c1NC(=O)c1ccncc1F,inhibition,"PRVABC59, Concentration 49.5 uM, Number of replicates 2.0, Standard deviation 1.9093792681449115 %",-0.69%
same,inhibition,"PRVABC59, Concentration 99.01 uM, Number of replicates 2.0, Standard deviation 1.3658628031285187 %",-1.37%
same,inhibition,"PRVABC59, Concentration 198.0 uM, Number of replicates 2.0, Standard deviation 0.6788903933391712 %",1.16%
Cc1cc(CO)c2cccc(NC(=O)[C@@H](N)c3ccsc3)c2n1,inhibition,"PRVABC59, Concentration 49.95 uM, Number of replicates 2.0, Standard deviation 2.8402698834155693 %",0.802%
same,inhibition,"PRVABC59, Concentration 99.9 uM, Number of replicates 2.0, Standard deviation 3.07612314192035 %",11%
C[C@H]1CCC[C@H](C)N1CCNC(=O)C1CCN(c2ccc(C=O)cc2)CC1,inhibition,[2],22.2%
Cc1cc(CO)c2cccc(Cc3cccc(C(=O)NCc4ccc(S(N)(=O)=O)cc4)c3)c2n1,inhibition,"PRVABC59, Concentration 99.9 uM, Number of replicates 2.0, Standard deviation 3.240458087536571 %",-8.63%
Cc1c(Br)cnc(NC(=O)c2cc(Cl)ccc2NS(=O)(=O)c2ccc(Oc3ccccc3Cl)cc2)c1[N+](=O)[O-],inhibition,[1],23.1%
CN(Cc1nc2ccsc2c(=O)[nH]1)C(=O)c1cc(Cl)ccc1NS(=O)(=O)c1ccc(Oc2ccccc2Cl)cc1,inhibition,[1],11.9%
Cc1cc(CO)c2cccc(Cc3cccc(NC(=O)c4cc(C(F)F)nn4C)c3)c2n1,inhibition,"PRVABC59, Concentration 49.95 uM, Number of replicates 2.0, Standard deviation 0.2559254422270031 %",-3.59%
same,inhibition,"PRVABC59, Concentration 99.9 uM, Number of replicates 2.0, Standard deviation 0.34625197592436774 %",0.543%
c1ccc2c([C@H]3CCN(Cc4c[nH]cn4)C3)c[nH]c2c1,inhibition,"PRVABC59, Concentration 49.5 uM, Number of replicates 2.0, Standard deviation 3.7580470125342442 %",0.152%
same,inhibition,"PRVABC59, Concentration 99.01 uM, Number of replicates 2.0, Standard deviation 3.2719105104126136 %",3.08%
same,inhibition,"PRVABC59, Concentration 198.0 uM, Number of replicates 2.0, Standard deviation 2.8090237272161387 %",8.45%
Cc1cnccc1NC(=O)c1cc(C2CC2)n(C)n1,inhibition,"PRVABC59, Concentration 49.5 uM, Number of replicates 2.0, Standard deviation 2.9772917324416994 %",1.35%
same,inhibition,"PRVABC59, Concentration 99.01 uM, Number of replicates 2.0, Standard deviation 3.181871776470306 %",0.048%
same,inhibition,"PRVABC59, Concentration 198.0 uM, Number of replicates 2.0, Standard deviation 2.365728105759831 %",-2.14%
O=Cc1ccc(N2CCC(C(=O)N3CCN(c4ccccc4O)CC3)CC2)cc1,inhibition,[2],27.4%
Cc1cc(CO)c2cccc(N3CCCNCC3)c2n1,inhibition,"PRVABC59, Concentration 49.95 uM, Number of replicates 2.0, Standard deviation 0.43156080086596493 %",-8.47%
same,inhibition,"PRVABC59, Concentration 99.9 uM, Number of replicates 2.0, Standard deviation 1.696132820538101 %",-9.37%
O=C(Nc1ccc(C(F)(F)F)cc1)c1cc(Cl)ccc1NS(=O)(=O)c1ccc(Oc2ccccc2Cl)cc1,inhibition,[1],26.8%
Cc1cc(CO)c2cccc(Cc3cccc(NC(=O)CCC4CCNCC4)c3)c2n1,inhibition,"PRVABC59, Concentration 49.95 uM, Number of replicates 2.0, Standard deviation 0.07125447361688171 %",70.2%
same,inhibition,"PRVABC59, Concentration 99.9 uM, Number of replicates 2.0, Standard deviation 0.2799306012648679 %",94.6%
O=C(NC1CCN(Cc2ccccc2F)CC1)c1cc(Cl)ccc1NS(=O)(=O)c1ccc(Oc2ccccc2Cl)cc1,inhibition,[1],19.2%
CC(C)(CC(=O)Nc1cccc(CN)c1)NC(=O)OCc1ccccc1,inhibition,"PRVABC59, Concentration 49.5 uM, Number of replicates 2.0, Standard deviation 1.9183842373572035 %",-0.42%
same,inhibition,"PRVABC59, Concentration 99.01 uM, Number of replicates 2.0, Standard deviation 0.3162171833714132 %",2.76%
same,inhibition,"PRVABC59, Concentration 198.0 uM, Number of replicates 2.0, Standard deviation 0.9637096075628176 %",7.5%
O=Cc1ccc(N2CCC(C(=O)N3CCC[C@H](C(F)(F)F)C3)CC2)cc1,inhibition,[2],30.7%
O=C(NCc1c(F)ccc(F)c1F)c1cc(Cl)ccc1NS(=O)(=O)c1ccc(Oc2ccccc2Cl)cc1,inhibition,[1],37.4%
Cc1cc(CO)c2cccc(Cc3ccccc3NC(=O)C[C@H]3CCCN3)c2n1,inhibition,"PRVABC59, Concentration 99.9 uM, Number of replicates 1.0",-6.9%
CC(=O)N1CCC(N(C)C(=O)c2cc(Cl)ccc2NS(=O)(=O)c2ccc(Oc3ccccc3Cl)cc2)CC1,inhibition,[1],11.3%
O=C(Nc1ccccc1Sc1ccccc1)c1cc(Cl)ccc1NS(=O)(=O)c1ccc(Oc2ccccc2Cl)cc1,inhibition,[1],25.8%
O=C(Nc1ccc2nccnc2c1Br)c1cc(Cl)ccc1NS(=O)(=O)c1ccc(Oc2ccccc2Cl)cc1,inhibition,[1],26.7%
COc1cc(C(=O)N(C)C)nc(N2CCNCC2)n1,inhibition,"PRVABC59, Concentration 49.5 uM, Number of replicates 2.0, Standard deviation 1.8847476383507809 %",-3.23%
same,inhibition,"PRVABC59, Concentration 99.01 uM, Number of replicates 2.0, Standard deviation 2.7378897935859983 %",-4.42%
same,inhibition,"PRVABC59, Concentration 198.0 uM, Number of replicates 2.0, Standard deviation 3.521387569111147 %",-4.08%
NC(=O)C1(N2CCCCC2)CCN(C(=O)c2cc(Cl)ccc2NS(=O)(=O)c2ccc(Oc3ccccc3Cl)cc2)CC1,inhibition,[1],8.91%
